Measurements from the supplement of paper PMC5499739.
Over roughly 16,000 sequences, “Z-score” has its median near -0.37; the highest 2% begin near 3.1. The list shows a part of the results.

The sequences below were run on RBM10 RRM1-ZnF-RRM2 (GST-tagged construct) (assay: RNAcompete 7-mer binding Z-score; higher = stronger binding preference).
Outline: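 Each heptamer motif was given a one-sided Z-score for enrichment across the probes that contained it. GST-tagged RBM10 constructs (20 pmol) were combined with 1.5 nmol of a designed pool of 241 399 RNAs of up to 41 nt, transcribed from microarray-derived DNA templates. Binding took place in 1 ml Hepes pH 7.8 buffer containing KCl, NaCl, glycerol, DTT, BSA and glutathione Sepharose beads for 30 min at 4°C. After four 2-min washes at 4°C, bound RNA was identified by microarray hybridisation.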

Sequence | RNAcompete 7-mer binding Z-score
CCAUCUC | -0.905
ACGUUUA | -0.817
GAGGGGA | 3.29
CAUCCAC | -0.69
AGAGUGG | 2.77
GCACUGU | -0.442
UUCGUAA | -0.613
UAUCUAA | -0.715
CCAUGGU | -0.0197
GUAACAG | 1.3
UAACUGU | -0.584
UGCAUAU | -0.49
UUUGGGC | 0.833
CCUCGUU | -0.701
AUCGCGG | 0.0131
GCCGAAU | -0.777
CGUUUUG | -0.497
CCUGAGC | -0.602
GGCGCGA | 0.599
AGACUAC | -0.901
AUUCUAA | -0.744
AUCUGCG | -0.621
AGGUCGG | 1.58

Sequence | RNAcompete 7-mer binding Z-score
GGAGGUC | 1.9
CAAACUG | -0.446
UGUGAGU | 0.559
UGGUGUC | 0.348
ACGGAUG | 1.44
GAUCGGG | 2.09
GUGGCCG | 0.785
CGCGAGU | -0.347
GUCAGGC | 0.625
AACUCAG | -0.431
CCCUGAC | -0.741
UAUAUCA | -0.639
ACGCGGU | 0.0641
ACCAAUG | 0.0641
UCAUCUG | -0.821
GCACAGA | 0.0823
CGGGAUG | 2.31
GAGACAC | -0.0197
GUCUUUU | -0.581
AAUACAU | -0.34
UAAAACG | 0.133
CACGUUG | -0.26
UCGUUGU | -0.449

Sequence | RNAcompete 7-mer binding Z-score
GGAGACU | 0.665
CGCUUUU | -0.916
UUAGUGC | -0.315
CCCUAAU | -0.788
ACGUGUA | 0.195
UUCGAAG | -0.14
UUCGUGA | -0.366
GGGCCAG | 1.25
GCCUCGC | -0.734
UAUUCAU | -0.409
UCUUAAC | -0.795
UUUGCCG | -0.766
CGUCCAC | -0.741
ACACAGG | 1.58
GAGCCCA | -0.741
ACAGUAU | -0.133
AAAGUGU | 0.388
GGUCACG | 0.829
CAAAGGG | 2.78
CGACGAG | 0.144
GGACGUA | 1.16
AUAGAAA | 0.41
UUAAGCC | -0.85

Sequence | RNAcompete 7-mer binding Z-score
AGCUUUG | -0.836
UUCAAUC | -0.814
CGUGUUG | 0.0604
UCGCGCU | -0.817
UUGAUUC | -0.788
UGGGUUG | 2.56
CUCUACG | -0.865
GGGAUAC | 2.71
GAGGCAA | 1.31
UCUUGGU | -0.428
AGACCUC | -1.12
AGCGCCU | -0.708
AUGAAAA | 0.177
GACCGAU | -0.479
UAACGUU | -0.555
GCACUUC | -0.606
UCACGUA | -0.409
UCAAUCU | -0.69
GGAGACC | 0.774
AAAGAUC | -0.322
UGACUAA | -0.38
CUAGGAG | 0.534
GUCAAUC | -0.315

Sequence | RNAcompete 7-mer binding Z-score
AAGACCA | -0.307
AUCCACC | -0.628
AGGUGCU | 0.701
ACCUCGU | -0.814
CCUCCAG | -0.639
CUGUGAG | -0.0525
CAAGCCA | -0.541
CCGUGAG | -0.304
AGCAUUG | -0.0925
UAUAUAA | -0.475
UAUUAAA | -0.46
UAGUUAG | 0.363
CUAUGAU | -0.643
ACAACGA | 0.162
GCCAUAC | -0.457
GCGGCUA | 0.21
UCCUCGA | -0.832
AGCAUGU | -0.307
AUGAAGG | 2.82
AUGUCAG | 0.0459
UCCUUCU | -0.828
CAAUUUC | -0.879
UGUAUAC | -0.428

Sequence | RNAcompete 7-mer binding Z-score
AACACGC | -0.369
UAUUAGU | -0.3
GACGACA | 0.177
UUUGCUU | -0.828
CUAACGU | -0.617
ACCGUCU | -0.916
UAUGUUU | -0.435
CUUUCCC | -0.857
AUGCCUG | -0.785
UACCUUU | -0.901
CUCAGGU | -0.195
CCAACCG | -0.65
ACCGGCG | 0.0823
AUCCAAG | -0.318
UUUCGGC | -0.646
CAAGUGG | 1.46
UUCAGCG | -0.5
GAGGUCG | 1.32
UUGUAGC | -0.624
GAAGCAU | 0.228
GUCCUAA | -0.588
CAUUUUG | -0.959
GGCCUUU | -0.708

Sequence | RNAcompete 7-mer binding Z-score
AGACUUC | -0.963
CGUCGGU | 0.0714
UUGAAGC | -0.249
AACUAAU | -0.57
CACCGCA | -0.694
CAUGACU | -0.679
GAAGGUC | 1.25
UAGAAUG | 0.716
CAGCUAG | -0.231
CGGCCUC | -0.683
CAGAUCU | -0.723
AGAGGUG | 2.05
CAAGCGG | 0.945
GAUCAUC | -0.708
AUGCUGC | -0.599
AGAAGCG | 0.399
GGUACUU | 0.264
UUUCUCG | -0.734
CCAUAUC | -0.694
UAAUCUA | -0.526
CCGAGGC | 0.0568
UGUAUGA | -0.122
AUCCUAC | -0.785

Sequence | RNAcompete 7-mer binding Z-score
AGUAGUA | 0.297
CCGCCUA | -0.748
CAAAAGG | 1.19
AUGUGGC | 0.84
CUGCGGG | 1.23
GGGGCAC | 2.17
UAUGCCC | -0.755
CCGGAGA | 0.319
UCCUGCC | -0.905
AAACGUA | -0.0925
GGCGGGC | 1.97
CGGAACC | 0.00944
CCCGCCU | -0.843
UAAACAG | -0.0379
CCAAGUC | -0.664
GAUAAGA | 0.64
CUCAAGA | -0.763
GAACCAG | -0.0525
GUAAAUG | 0.774
CACGCUA | -0.679
UGUACAG | 0.519
AUGACGG | 1.41
GGGAUUU | 1.43
